{
  "source": "paper PMC4336329",
  "about": "(PLoS ONE, 2015)",
  "note": "Among all 310,000 compounds or so, about 14,000 (4.5%) showed an effect of 50% or more. The effect is printed as a negative number. The list shows a part of the results.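 Note: peak tail current of the secondary pulse compared with the same well before compound.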",
  "data": [
    {"molecular_target": "human ether-à-go-go-related gene (hERG) potassium channel (human, UniProt Q12809)", "sequence (Q12809 whole entry, looked up)": "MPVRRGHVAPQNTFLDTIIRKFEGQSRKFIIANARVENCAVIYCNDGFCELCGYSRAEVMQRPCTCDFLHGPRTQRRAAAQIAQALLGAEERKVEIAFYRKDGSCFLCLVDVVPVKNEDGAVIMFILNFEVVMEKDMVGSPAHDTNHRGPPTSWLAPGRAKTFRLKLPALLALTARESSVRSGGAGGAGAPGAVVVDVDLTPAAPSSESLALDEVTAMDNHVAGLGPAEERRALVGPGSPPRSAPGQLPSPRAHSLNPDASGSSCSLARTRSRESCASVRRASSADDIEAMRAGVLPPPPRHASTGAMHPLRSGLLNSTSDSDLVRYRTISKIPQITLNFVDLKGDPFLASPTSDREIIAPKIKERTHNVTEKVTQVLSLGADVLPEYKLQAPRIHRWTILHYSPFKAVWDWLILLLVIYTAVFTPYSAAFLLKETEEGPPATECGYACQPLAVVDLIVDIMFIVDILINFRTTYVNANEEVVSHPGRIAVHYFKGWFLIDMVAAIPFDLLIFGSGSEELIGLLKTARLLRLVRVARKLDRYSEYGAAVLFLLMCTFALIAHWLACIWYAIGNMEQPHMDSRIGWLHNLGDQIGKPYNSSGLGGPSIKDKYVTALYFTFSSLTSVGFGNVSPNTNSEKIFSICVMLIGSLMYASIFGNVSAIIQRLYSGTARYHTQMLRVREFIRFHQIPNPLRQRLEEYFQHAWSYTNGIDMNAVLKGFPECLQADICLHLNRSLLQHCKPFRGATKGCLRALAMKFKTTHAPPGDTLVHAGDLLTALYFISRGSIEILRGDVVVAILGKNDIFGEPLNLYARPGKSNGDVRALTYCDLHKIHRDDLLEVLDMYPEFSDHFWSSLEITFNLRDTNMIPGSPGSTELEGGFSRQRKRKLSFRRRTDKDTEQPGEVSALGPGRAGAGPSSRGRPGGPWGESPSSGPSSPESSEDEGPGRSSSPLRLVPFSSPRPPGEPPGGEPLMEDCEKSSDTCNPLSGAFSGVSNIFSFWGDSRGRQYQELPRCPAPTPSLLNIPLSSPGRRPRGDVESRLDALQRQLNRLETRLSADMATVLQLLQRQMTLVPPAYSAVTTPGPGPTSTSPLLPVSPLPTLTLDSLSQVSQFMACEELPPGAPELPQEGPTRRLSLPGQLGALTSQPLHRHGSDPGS", "assay": "primary screen, population patch clamp on CHO cells stably expressing hERG", "units": {"hERG current change (%, negative = inhibition) at 10uM": "%"}, "values": [
      {"smiles": "Cc1ccc(NC(=O)CCCc2c[nH]c3ccccc23)nc1", "hERG current change (%, negative = inhibition) at 10uM": 8.67},
      {"smiles": "CC1Cc2nc(SCC(=O)Nc3nc4ccccc4s3)n(C)c(=O)c2S1", "note": "(stereo not drawn)", "hERG current change (%, negative = inhibition) at 10uM": -20.1},
      {"smiles": "COc1ccccc1CNS(=O)(=O)c1cc2c3c(c1)C(C)C(=O)N3CCC2", "note": "(stereo not drawn)", "hERG current change (%, negative = inhibition) at 10uM": 19.5},
      {"smiles": "Cc1ccc(N(CC(=O)NC2CCCC2)C(=O)CCC(=O)Nc2nc(C)cs2)cc1", "hERG current change (%, negative = inhibition) at 10uM": -11.9},
      {"smiles": "CCCCCOC(=O)CSc1nnc(-c2ccccc2)c(=O)[nH]1", "hERG current change (%, negative = inhibition) at 10uM": -14.1},
      {"smiles": "CCN(CC)C(=O)CSc1nnc(-c2cc(-c3ccc(Cl)cc3)nc3ccccc23)o1", "hERG current change (%, negative = inhibition) at 10uM": -3.85},
      {"smiles": "CC1Cc2ccccc2N1C(=O)CCNS(=O)(=O)c1cccc2nsnc12", "note": "(stereo not drawn)", "hERG current change (%, negative = inhibition) at 10uM": -10.1},
      {"smiles": "Cc1c(C=O)c2ccccc2n1CC(=O)NC(C)c1ccccc1", "note": "(stereo not drawn)", "hERG current change (%, negative = inhibition) at 10uM": 16.5},
      {"smiles": "CN(C)c1ccc(NC(=O)CN2C(=O)CN=C(c3ccccc3)c3cc(Cl)ccc32)cc1", "hERG current change (%, negative = inhibition) at 10uM": -5.05},
      {"smiles": "COc1cc2c(C#N)c(N3CCc4ccccc4C3)nc(N)c2c(N)n1", "hERG current change (%, negative = inhibition) at 10uM": 6.55},
      {"smiles": "CCOC(=O)c1ccc(OCCOc2cccc(C)c2)cc1", "hERG current change (%, negative = inhibition) at 10uM": 10.7},
      {"smiles": "CCn1c(-c2cc(Br)cc(OC)c2O)nc2cc(S(=O)(=O)N(C)C)ccc21", "hERG current change (%, negative = inhibition) at 10uM": -6.88},
      {"smiles": "COC(=O)c1ccc(S(=O)(=O)NCc2ccc(S(N)(=O)=O)cc2)o1", "hERG current change (%, negative = inhibition) at 10uM": 9.93},
      {"smiles": "COc1ccc(COc2ccc(S(=O)(=O)N3CCCC3)cc2C(N)=O)cc1F", "hERG current change (%, negative = inhibition) at 10uM": 4.81},
      {"smiles": "COc1ccc(CCn2c(C)nc3c(c(=O)c4ccccc4n3C)c2=O)cc1", "hERG current change (%, negative = inhibition) at 10uM": -61.4},
      {"smiles": "C[C@@H]1CN(C(=O)c2nc3ccc(Cl)cn3c2CN2CCc3sccc3C2)C[C@H](C)O1", "hERG current change (%, negative = inhibition) at 10uM": -0.882},
      {"smiles": "Cc1ccc(C)c(NC(=O)CSc2nnc3n2CCCCC3)c1", "hERG current change (%, negative = inhibition) at 10uM": 11},
      {"smiles": "CCCCn1nnc(NC(=O)c2ccc(-c3ccccc3)cc2)n1", "hERG current change (%, negative = inhibition) at 10uM": 7.32},
      {"smiles": "COc1ccc(/C=N/NC(=O)c2ccoc2C)cc1COc1ccc(Cl)cc1", "hERG current change (%, negative = inhibition) at 10uM": 4.74},
      {"smiles": "O=C(c1c(Cl)cccc1Cl)N1CCCCCC1", "hERG current change (%, negative = inhibition) at 10uM": 6.06},
      {"smiles": "Cc1noc(C)c1COC(=O)c1cc(=O)[nH]c2ccccc12", "hERG current change (%, negative = inhibition) at 10uM": -22.8},
      {"smiles": "COc1ccnc(Oc2ccc(F)cc2)c1C(=O)N/C=N/OCc1ccc(F)cc1", "hERG current change (%, negative = inhibition) at 10uM": -9.65},
      {"smiles": "CN(C)C(CNC(=O)Cc1ccc([N+](=O)[O-])cc1)c1ccccc1", "note": "(stereo not drawn)", "hERG current change (%, negative = inhibition) at 10uM": -28.6},
      {"smiles": "CCOC(=O)c1c(-c2ccccc2)nnn1-c1nc(OCC)nc(N2CCCCC2)n1", "hERG current change (%, negative = inhibition) at 10uM": -29.1}
    ]}
  ]
}
